Measured values taken from publication PMC6451091.
This is one part of the list. For part of these data: At the low end of the ranking the order means little. For part of these data: The protein was read in a cell extract, so binding may be indirect.

What was measured:
Details in all cases: 20 mM HEPES pH 7.9, 100 mM NaCl, 1 mM DTT, 0.2 mg/mL BSA, 0.02% Triton X-100, 2% milk, 0.4 mg/mL salmon testes DNA; 1 h; temperature not stated; high values mean tight binding; double strand, one strand shown; sequences stand for … in GCCTAGCAC…GTGCTAGGTCTTGATTCGCTTGACGCTGCTG
PU.1 (IVT) = PU.1 (IVT) (UniProt P17947); experiment: protein-binding microarray (PBM)
[1] = target: PU.1 (endogenous, THP-1 nuclear extract) (UniProt P17947); experiment: nuclear extract protein-binding microarray (nextPBM)
[2] = target: T1, FLI1 (endogenous, THP-1 nuclear extract) (UniProt Q01543); experiment: as above
T1 sequence: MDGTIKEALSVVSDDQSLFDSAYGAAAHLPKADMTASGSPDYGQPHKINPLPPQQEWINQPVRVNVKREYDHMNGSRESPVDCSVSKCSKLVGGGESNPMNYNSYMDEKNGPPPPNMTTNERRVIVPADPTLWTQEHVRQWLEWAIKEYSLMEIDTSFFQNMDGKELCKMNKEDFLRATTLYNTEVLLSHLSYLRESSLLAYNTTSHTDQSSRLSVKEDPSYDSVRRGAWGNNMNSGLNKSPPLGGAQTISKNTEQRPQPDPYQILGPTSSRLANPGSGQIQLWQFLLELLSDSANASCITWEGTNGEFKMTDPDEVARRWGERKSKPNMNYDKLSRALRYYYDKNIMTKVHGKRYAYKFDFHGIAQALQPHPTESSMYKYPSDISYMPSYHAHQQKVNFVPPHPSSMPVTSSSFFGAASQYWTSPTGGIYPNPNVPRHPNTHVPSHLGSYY

[3] = test system: PU.1 (endogenous, THP-1 nuclear extract) + IRF8 (endogenous, THP-1 nuclear extract); experiment: as above

| Sequence | binding signal (PU.1 (IVT)) | binding signal [1] | binding signal [2] | binding signal [3] |
| --- | --- | --- | --- | --- |
| TAGTCAGGATTCTCTCTAAC | -0.716 z-score | -0.406 z-score | -0.497 z-score | -0.257 z-score |
| TGCCTTTCATTCTGGAATCA | -0.254 z-score | -0.137 z-score | 0.387 z-score | -0.801 z-score |
| GGAAGGCCTGCGTGAAAGCA | -0.707 z-score | -0.401 z-score | 0.621 z-score | -0.551 z-score |
| CTACTAGGCTTTATGGTTAG | -0.437 z-score | -0.356 z-score | -0.094 z-score | 0.226 z-score |
| GCTTTAGCTGCCTGAAAGCG | -0.439 z-score | -0.69 z-score | -0.698 z-score | -1.08 z-score |
| CAGTGACTCACGCCCATAAT | -0.287 z-score | -0.191 z-score | -0.564 z-score | 0.608 z-score |
| CATAACATAAAATTTACCAT | -0.11 z-score | -0.47 z-score | 0.261 z-score | 0.707 z-score |
| CCTCCACTTTGGGTAAATCT | -0.143 z-score | -0.54 z-score | -0.463 z-score | -0.941 z-score |
| TGACGACTTTTCAGCTAGAC | -0.42 z-score | -0.567 z-score | -0.55 z-score | -0.596 z-score |
| ACATTTGTTCACTATTAACT | 0.282 z-score | -0.142 z-score | -0.381 z-score | 0.835 z-score |
| ATGAAAAGAAAACCAAGATA | -0.172 z-score | -0.592 z-score | 0.0182 z-score | 1.01 z-score |
| TTTCCTTCAGGAAAACAGTG | -0.228 z-score | -0.0901 z-score | 1.3 z-score | -0.446 z-score |
| CCAGACTCTAGGGCCAGCCT | -0.612 z-score | -0.287 z-score | -0.474 z-score | -0.0167 z-score |
| GGTCGGGGTTGGACAAGTGA | -0.662 z-score | -0.101 z-score | -0.0608 z-score | 0.66 z-score |
| GGGATTAACCGGTGTTTCCT | -0.215 z-score | -0.339 z-score | 3.55 z-score | -0.536 z-score |
| GATATTTATGACGCTTGACC | -0.44 z-score | -0.291 z-score | -0.681 z-score | -1.48 z-score |
| ACCAATGGGCGTGGGGGAGG | 0.158 z-score | 0.000911 z-score | -0.702 z-score | -1.34 z-score |
| TCGTCACCACTTATTTTGAA | 0.0665 z-score | -0.416 z-score | -0.658 z-score | -0.637 z-score |
| CAGCTGAGACCCCCAGCCGC | -0.47 z-score | -0.218 z-score | 0.72 z-score | 1.04 z-score |
| CGGCGTCATGCTAACTTCTG | -0.478 z-score | -0.199 z-score | 0.389 z-score | 1.55 z-score |
| TGAAACACTGCGTGAAACCA | -0.383 z-score | -0.366 z-score | -0.757 z-score | 2.83 z-score |
| CATTTGTTATCTTTAACCTG | -0.307 z-score | -0.555 z-score | -0.112 z-score | -0.865 z-score |
| TCAGAAGAGAATAGGAGTCC | -0.345 z-score | -0.483 z-score | -0.365 z-score | 0.884 z-score |
| TGTGAAAAATGACAAAGCAC | 0.00629 z-score | -0.298 z-score | -0.428 z-score | -1.06 z-score |
| GTGAGTCCCTTTTTTGTATT | 0.126 z-score | -0.187 z-score | -0.32 z-score | 1.24 z-score |
| AAGGACTTGTTCCAAGAATT | -0.167 z-score | -0.644 z-score | -0.681 z-score | -1.52 z-score |
| AATTTTTTGTATTTTTAGTA | -0.205 z-score | -0.618 z-score | 0.0986 z-score | 0.555 z-score |
